{"source": "PubChem BioAssay AID1476", "about": "(National Center for Advancing Translational Sciences (NCATS), 2009)", "note": "Where “and” joins values, the source holds several entries; their conditions need not be identical. Equal entries are not always repeated. About 4,500 (2.2%) of roughly 200,000 compounds were called active. This list was built around the results that the source calls inconclusive (neither active nor inactive); the mix of calls is not that of the screen. Calls follow the shape of the dose curve; as a rule, active = well fitted inhibition curve with a large enough effect; inconclusive = small, poorly fitted or top-dose-only effect, or effect the other way; inactive = flat fitted curve, though single readings scatter. Potencies of inconclusive entries are doubtful fits and often do not repeat. Potency is read from the fitted curve at half-maximal effect; tags tell the direction and shape of the fitted curve."}
{"molecular_target": "Cruzipain (Trypanosoma cruzi) (UniProt P25779)", "sequence (P25779 whole entry, looked up)": "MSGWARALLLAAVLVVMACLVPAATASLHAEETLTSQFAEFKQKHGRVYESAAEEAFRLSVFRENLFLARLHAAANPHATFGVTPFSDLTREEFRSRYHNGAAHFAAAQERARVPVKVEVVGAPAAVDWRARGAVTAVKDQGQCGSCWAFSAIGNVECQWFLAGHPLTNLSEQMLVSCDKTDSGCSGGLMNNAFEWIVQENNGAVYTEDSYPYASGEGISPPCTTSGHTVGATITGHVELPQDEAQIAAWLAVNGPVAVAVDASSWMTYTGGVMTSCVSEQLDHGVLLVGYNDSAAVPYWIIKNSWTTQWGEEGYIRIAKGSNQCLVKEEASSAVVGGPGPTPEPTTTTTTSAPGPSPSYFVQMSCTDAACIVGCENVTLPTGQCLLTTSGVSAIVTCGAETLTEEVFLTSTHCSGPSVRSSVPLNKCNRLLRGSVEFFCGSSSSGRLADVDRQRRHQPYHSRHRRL", "test": "qHTS Assay for Promiscuous and Specific Inhibitors of Cruzain (without detergent); also: nearly all actives have a fitted effect of over 40% in size;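 as to max response, negative = inhibition: plate controls were enzyme without inhibitor for no effect and buffer without enzyme for full effect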", "details": "purified cruzain, Z-FR-AMC fluorescence, no detergent", "outline": "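Purified cruzain at 1.5 nM, pre-incubated 15 min with compound at room temperature in 100 mM sodium acetate pH 5.5, 5 mM DTT, 0.00005% Triton X-100. Reaction started with 2 uM Z-FR-AMC; AMC fluorescence increase over 60 s gives rate.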"}
{"smiles": "COc1ccc(N/C=C\\C(=O)c2ccc3c(c2)OCO3)cc1", "Potency": "inconclusive: 39.8 µM [inhibitor, single point]"}
{"smiles": "COc1ccc(C(=O)Nc2ccc(Cl)cc2C(=O)NCc2ccco2)cc1OC", "Potency": "inconclusive: 39.8 µM [activator, single point]"}
{"smiles": "CN(C)c1ccc(/C=C/C(=O)c2cccc(Br)c2)cc1", "max response, negative = inhibition": "inactive: -3.93%"}
{"smiles": "CCOc1ccc2nc(-c3ccccc3)[nH]c2c1", "Potency": "inconclusive: 39.8 µM [activator, single point]"}
{"smiles": "COc1ccc(S(=O)(=O)c2c(Nc3ccc(C)cc3)sc(C(=O)c3ccc(C)cc3)c2N)cc1", "Potency": "active: 5.01 µM"}
{"smiles": "FC(F)(F)c1cccc(N2CCN(c3ccc4nnc(-c5ccccc5)n4n3)CC2)c1", "Potency": "inconclusive: 25.1 µM [activator, single point]"}
{"smiles": "Cc1ccc(N(CC(=O)N/N=C/c2ccc(OC3CSC3)cc2)S(=O)(=O)c2ccccc2)c(C)c1", "Potency": "active: 15.8 µM"}
{"smiles": "Cc1cccc(C(=O)NCC(c2ccc3c(c2)OCO3)N2CCN(c3ccccc3F)CC2)c1", "note": "(configuration not stated)", "max response, negative = inhibition": "inactive: 16.6%"}
{"smiles": "COc1cc(-c2noc(CSc3nc(-c4ccccc4)cc(=O)[nH]3)n2)cc(OC)c1OC", "Potency": "inconclusive: 12.6 µM [activator, partial curve]"}
{"smiles": "Cc1cc(C)nc(-n2nc(C)cc2Nc2ccccc2)n1", "Potency": "inconclusive: 39.8 µM [activator, single point]"}
{"smiles": "COCCn1nnnc1C(c1cc2cc(C)ccc2[nH]c1=O)N1CCc2ccccc21", "note": "(configuration not stated)", "Potency": "inconclusive: 39.8 µM [activator, single point]"}
{"smiles": "Nc1ccc(-c2nc3ccc(-c4nc5ccc(N)cc5[nH]4)cc3[nH]2)cc1", "Potency": "active: 12.6 µM and active: 25.1 µM"}
{"smiles": "O=C(COC(=O)c1ccc(S(=O)(=O)NCc2ccco2)cc1)NCCC1=CCCCC1", "Potency": "inconclusive: 39.8 µM [inhibitor, single point]"}
{"smiles": "O=C(CC(Nc1cccc(Cl)c1Cl)C(=O)OCC(=O)c1cccs1)c1ccccc1", "note": "(configuration not stated)", "Potency": "inconclusive: 39.8 µM [inhibitor, single point]"}
{"smiles": "COc1ccc(-c2ccc(CNc3ccc4[nH]c(=O)[nH]c4c3)o2)cc1Cl", "Potency": "inconclusive: 31.6 µM [inhibitor, single point]"}
{"smiles": "Cc1csc2nc(CCNS(=O)(=O)c3ccc4c(c3)OCCO4)cn12", "Potency": "inconclusive: 25.1 µM [inhibitor, single point]"}
{"smiles": "COC(=O)[C@@]1(Cc2ccc(OC)cc2)[C@H]2c3cc(C(=O)N(C)C)n(CCF)c3C[C@H]2CN1C(=O)c1ccccc1", "Potency": "inconclusive: 12.6 µM [activator, partial curve]"}
{"smiles": "CCOC(=O)c1sc(NC(=O)c2nc3ncccn3n2)c(C(=O)OC(C)C)c1C", "max response, negative = inhibition": "inactive: -8.95%"}
{"smiles": "c1ccc2c(c1)nc(N1CCOCC1)c1nnnn12", "max response, negative = inhibition": "inactive: -12.2%"}
{"smiles": "COc1ccc(-n2c(SCC(=O)N3CCCCC3)nc(O)cc2=O)cc1", "max response, negative = inhibition": "inactive: 16.6%"}
{"smiles": "COc1ccc(CNC(=O)c2cc(-c3cccs3)nc3ccccc23)c(OC)c1", "max response, negative = inhibition": "inactive: -1.75%"}
{"smiles": "COc1cc(NS(=O)(=O)c2ccc(N/C=C(\\C#N)c3nc4ccccc4o3)cc2)nc(OC)n1", "Potency": "inconclusive: 10 µM [activator, partial curve]"}
{"smiles": "CCOc1ccccc1N1CC(c2nc3ccccc3n2CCOc2ccc(OC)cc2)CC1=O", "note": "(configuration not stated)", "Potency": "inconclusive: 39.8 µM [activator, single point]"}
{"smiles": "CC(=O)N(Cc1cccnc1)c1nc2c(C)cc(C)cc2s1", "Potency": "inconclusive: 39.8 µM [activator, single point]"}
{"smiles": "Cc1ccc(NC(=O)c2cc3c(Cl)nc4ccc(C)cc4c3s2)c(Cl)c1", "Potency": "inconclusive: 39.8 µM [inhibitor, single point]"}
{"smiles": "Cc1cccc(C(=O)Nc2c(-c3ccc(F)cc3)nc3ccccn23)c1", "max response, negative = inhibition": "inactive: 2.97%"}
{"smiles": "CC(NC(=O)OCc1ccccc1)C(=O)Oc1cc2oc(=O)cc(-c3ccccc3)c2cc1Cl", "note": "(configuration not stated)", "Potency": "inconclusive: 25.1 µM [inhibitor, single point]"}
{"smiles": "Cc1ccc(C)c(N2CCN(C(=O)c3cc4c(=O)n(Cc5cccnc5)ccc4nc3C)CC2)c1", "Potency": "inconclusive: 31.6 µM [activator, single point]"}
{"smiles": "COc1cccc(-c2ccc3c(N)c(C(=O)Nc4ccc(Cl)cc4F)sc3n2)c1", "Potency": "inconclusive: 31.6 µM [inhibitor, single point]"}
{"smiles": "CCc1ccccc1NC(=O)Cc1ccc(-n2c(C)nc3cccnc32)cc1", "max response, negative = inhibition": "inactive: -2.43%"}
{"smiles": "CC(C)Cn1c(=O)c2sccc2n2c(CCCC(=O)NCC(C)c3ccccc3)nnc12", "note": "(configuration not stated)", "max response, negative = inhibition": "inactive: -0.913%"}
{"smiles": "O=C(Nc1cccc(Cl)c1Cl)c1cc(S(=O)(=O)N2CCC3(CC2)OCCO3)ccc1F", "Potency": "inconclusive: 25.1 µM [activator, partial curve]"}
{"smiles": "COC(=O)c1cc2oc3ccccc3c2n1Cc1nc(-c2cccc(Cl)c2)oc1C", "Potency": "inconclusive: 6.31 µM [activator, full curve]"}
{"smiles": "COCCCn1c(-c2ccc(OC)cc2)cc(C(=O)NC2CCCCCCC2)c1C", "Potency": "inconclusive: 39.8 µM [activator, single point]"}
{"smiles": "CSCCC(NC(C)=O)C(=O)Oc1ccc2c3c(c(=O)oc2c1)CCCC3", "note": "(configuration not stated)", "Potency": "inconclusive: 25.1 µM [activator, single point]"}
{"smiles": "O=C(/C=C/c1ccccc1Cl)c1cccnc1", "max response, negative = inhibition": "inactive: 7.4%"}
{"smiles": "COc1ccc(Cn2cc(C(=O)c3ccc(Cl)cc3)c(=O)c3cc4c(cc32)OCO4)cc1", "Potency": "inconclusive: 12.6 µM [inhibitor, partial curve]"}
{"smiles": "Cn1c(=O)c(C(=O)COC(=O)c2cc(C(F)(F)F)nc3ccccc23)c(N)n(Cc2ccccc2)c1=O", "max response, negative = inhibition": "inactive: -18.8% and inactive: -11.9%"}
{"smiles": "CNC(=O)C1CC(=O)N(CCCc2ccccc2)C(=Nc2ccccc2)S1", "note": "(configuration not stated)", "Potency": "inconclusive: 31.6 µM [activator, single point]"}
{"smiles": "COc1ccc(-n2c(=O)c(C)nc3cnc(Nc4cccc(OC)c4)nc32)cc1", "Potency": "inconclusive: 39.8 µM [activator, single point]"}
{"smiles": "N#CC1=C(N)N(c2ccccc2)C2=C(C(=O)CCC2)C1c1cccs1", "note": "(configuration not stated)", "Potency": "inconclusive: 15.8 µM [inhibitor, partial curve, poor fit]"}
{"smiles": "CCOC(=O)N1CCC(NC(=O)c2ccc3c(c2)N(Cc2ccccc2)CCS3)CC1", "Potency": "inconclusive: 31.6 µM [activator, single point]"}
{"smiles": "CCOC(=O)c1ccc(NC(=O)c2ccc3c(c2)c(C)c(C)n3Cc2ccc(F)cc2)cc1", "Potency": "active: 7.94 µM"}
{"smiles": "N#Cc1ccc(-c2ccc3c(c2)OCO3)nc1SCC(=O)OCc1ccccc1", "Potency": "inconclusive: 39.8 µM [inhibitor, single point]"}
{"smiles": "CC(C)(C)OC(=O)NCCCCC1=CC2=CC(=O)C(C)(OC(=O)CCc3ccccc3)C(=O)C2=CO1", "note": "(configuration not stated)", "max response, negative = inhibition": "inactive: 2.32%"}
{"smiles": "CCN(CC)c1ccc(C2Nc3cccc4cccc(c34)N2)c(O)c1", "Potency": "active: 12.6 µM"}
{"smiles": "Clc1ccc(C2=NNC(=NCc3ccc4c(c3)OCO4)SC2)cc1", "Potency": "inconclusive: 31.6 µM [inhibitor, single point]"}
{"smiles": "Cc1cc(C)cc(NC(=O)C2CCCN2S(=O)(=O)c2ccc3c(c2)C(C)(C)C(=O)N3C)c1", "note": "(configuration not stated)", "Potency": "inconclusive: 25.1 µM [activator, single point]"}
{"smiles": "CC(=O)O[C@H]1C[C@@]2(C)[C@@H](C[C@@H](O)[C@H]3[C@@]4(C)CC[C@@H](O)[C@@H](C)C4CC[C@@]32C)/C1=C(\\CCC=C(C)C)C(=O)O", "note": "(some centres not stated)", "Potency": "inconclusive: 10 µM [activator, partial curve]"}
{"smiles": "CC(NC(=O)CN(c1cccc(C(F)(F)F)c1)S(=O)(=O)c1ccc(Cl)c([N+](=O)[O-])c1)c1ccccc1", "note": "(configuration not stated)", "Potency": "inconclusive: 15.8 µM [inhibitor, partial curve]"}
{"smiles": "CCC(=O)Nc1ccc(NC(=O)/C=C/c2ccc(Cl)cc2)cc1", "Potency": "inconclusive: 25.1 µM [inhibitor, single point]"}
{"smiles": "Cc1ccc(/C=N\\NC(=O)C2CN(S(=O)(=O)c3ccccc3)CCN2S(=O)(=O)c2ccccc2)cc1", "note": "(configuration not stated)", "Potency": "inconclusive: 39.8 µM [inhibitor, single point]"}
{"smiles": "C=CCn1c(SCC(=O)Nc2sc(C)c(C)c2C(=O)OCC)nnc1-c1sc(N)nc1C", "Potency": "inconclusive: 39.8 µM [activator, single point]"}
{"smiles": "O=C(Oc1ccc(-c2cnc3ccccc3n2)cc1)c1cc([N+](=O)[O-])ccc1Cl", "Potency": "inconclusive: 39.8 µM [inhibitor, single point]"}
{"smiles": "Cc1cccc2nc(-c3cccc(NC(=O)c4ccc(Cl)cc4)c3)cn12", "Potency": "inconclusive: 39.8 µM [inhibitor, single point]"}
{"smiles": "O=C(OCc1cccs1)c1ccccc1NS(=O)(=O)c1ccc2c(c1)OCCO2", "Potency": "inconclusive: 39.8 µM [inhibitor, single point]"}
{"smiles": "CSc1cccc(NS(=O)(=O)c2ccc3[nH]cc(C(=O)N4CCCC4)c(=O)c3c2)c1", "max response, negative = inhibition": "inactive: 1.5%"}
{"smiles": "COc1ccc(-c2cc(C(F)(F)F)nc(SCC(=O)NCc3cccs3)n2)cc1", "Potency": "inconclusive: 0.1 µM [inhibitor, single point]"}
{"smiles": "CN1CCC[C@@H]1c1cccnc1.O=C(O)c1ccccc1O.O=C([OH2+])c1ccccc1O.O=C([OH2+])c1ccccc1O.O=C([OH2+])c1ccccc1O.[Cu]", "max response, negative = inhibition": "inactive: 14.3%"}
{"smiles": "NC1=Nc2ccccc2Oc2ccccc21", "Potency": "active: 25.1 µM"}
{"smiles": "COc1ccccc1CCNC(=O)c1ccc(NC(=O)N2CC(C)Sc3ccccc32)cc1", "note": "(configuration not stated)", "Potency": "inconclusive: 39.8 µM [inhibitor, single point]"}
{"smiles": "Cc1cc(Oc2nc3c(C)cccn3c(=O)c2/C=C(\\C#N)S(=O)(=O)c2ccccc2)ccc1Cl", "Potency": "inconclusive: 25.1 µM [inhibitor, single point]"}
